Measured values reported in patent publication US20020032316A1, “Hapten-carrier conjugates for use in drug-abuse therapy and methods for preparation of same” (priority 1995, published 2002).

Test: HPLC analysis of methyl ester hydrolysis of succinylated norcocaine
Conditions: pH 6, 7 and 8 at 5° C. over 24 hours

SMILES: COC(=O)[C@H]1[C@@H](OC(=O)c2ccccc2)C[C@@H]2CC[C@H]1N2C(=O)CCC(=O)O [succinylated norcocaine, 3β-(Benzoyloxy)-8-succinoyl-8-azabicyclo[3.2.1]octane-2β-carboxylic acid methyl ester]
- hydrolysis of the methyl ester (HPLC): essentially undetectable
